# Assay results taken from US20250000989A1, “PYRROLO BENZODIAZEPINE DERIVATIVE, AND CONJUGATE, PREPARATION METHOD AND USE THEREOF” (priority 2021, published 2025).
# Tests used:
# Assay in all cases: In vitro killing effect of Claudin18.2-ADCs (CTG)
# Type in all cases: cell-based, human
# [1] = system: Cells highly expressing NUGC4-claudin18.2
# Description: (§1) The in vitro killing effects of Claudin18.2-ADCs on the human gastric signet ring cell carcinoma cell strain NUGC4 were measured using CTG (CellTiter-Glo Luminescence Cell Viability Assay®, Promega, G7573).
# (§2) Human gastric signet ring cell carcinoma cell strain NUGC4 (Nanjing Cobioer, CBP60493);
# (§3) A PCDH plasmid containing the full-length sequence of claudin18.2 (SEQ ID NO: 7) was transfected into NUGC4 cells by electroporation. After two weeks of pressure selection, the levels of claudin18.2 expression were measured, and monoclonal cell strains with different expression levels were sorted based on the measured expression levels by flow cytometry. NUGC4/hCLDN18.2 1 #, a monoclonal cell strain highly expressing human Claudin18.2, and NUGC4/hCLDN18.2 11 #, a monoclonal cell strain moderately expressing human Claudin18.2, were obtained. • 2. On day 1: NUGC4, NUGC4(WT) 11 #, and NUGC4/hCLDN18.2 1 #cells were harvested, and the density was adjusted to 2.5×10^4/mL; the cells were added to white transparent 96-well plates at 90 μL/well, i.e., about 2500 cells/well, and cultured overnight in a 37° C., 5% CO2 incubator. • 3. On day 2: Samples were serially diluted 5-fold in 96-well plates from an initial concentration of 400 nM to obtain 9 concentration points, and the diluted samples were added to the cell plates at 10 μL/well; the cells were cultured at 37° C. with 5% CO2 for 4 days. • 4. On day 8: The cell culture plates were taken out, and Cell Titer-Glo Reagent was added at 50 μL/well; the plates were left to stand at room temperature for 2-3 min, and fluorescence values were measured on a PHERAstar FS microplate reader (BMG LABTECH).
# (§4) Data were analyzed using the software GraphPad Prism.
# [2] = system: Cells lowly expressing NUGC4-claudin18.2; conditions: NUGC4 low claudin18.2 expression, cultured 4 days
# Description: as §1, §2, §3, §4
# [3] = system: Cells moderately expressing NUGC4-claudin18.2; conditions: NUGC4 moderate claudin18.2 expression, cultured 4 days
# Description: as §1, §2, §3, §4
molecule,measurement,setting,value
ADC-22 (conjugate) light: DIVLTQSPDSLAVSLGERATINCKSSQSLLNSGNQKNYLTWYQQKPGQPPKLLIYWASTRESGVPDRFSGSGSGTDFTLTISSLQAEDVAVYYCQNAYTYPFTFGQGTKLEIKRTVAAPSVFIFPPSDEQLKSGTASVVCLLNNFYPREAKVQWKVDNALQSGNSQESVTEQDSKDSTYSLSSTLTLSKADYEKHKVYACEVTHQGLSSPVTKSFNRGEC heavy: EVQLVQSGAEVKKPGASVKVSCKASGYTFTSYWMHWVRQAPGQRLEWMGMIHPNSGSTNYNEKFKGRVTITRDTSASTAYMELSSLRSEDTAVYYCARLKTGNSFDYWGQGTTVTVSS[gap - human IgG1 constant region],"Emax, cells highly expressing NUGC4-claudin18.2","[1]; NUGC4 high claudin18.2 expression, cultured 4 days, CTG",94.95
same,activity in killing the high-expression cell line (conclusion in words),[1]; NUGC4 highly expressing claudin18.2,good activity
same,"Emax, cells lowly expressing NUGC4-claudin18.2",[2],88.37
same,"Emax, cells moderately expressing NUGC4-claudin18.2",[3],97.20
